{"source": "PubChem BioAssay AID686979", "about": "(National Center for Advancing Translational Sciences (NCATS), 2013)", "note": "Several values for one entry are separate records, joined by “and”; a condition that tells them apart may be missing. Equal values may be shown once. The campaign covered roughly 420,000 compounds. About 50,000 (12%) were called active. The inconclusive results got no clear call from the source; some entries with a clear call stand among them for comparison. Calls follow the shape of the dose curve; as a rule, active = well fitted inhibition curve with a large enough effect; inconclusive = small, poorly fitted or top-dose-only effect; inactive = flat fitted curve, though single readings scatter. Potencies of inconclusive entries are doubtful fits and often do not repeat. % is scaled to controls: 0 for no effect and ±100 for the full control effect; potency is read from the fitted curve at half-maximal effect; tags tell the direction and shape of the fitted curve.", "data": [{"test": "qHTS for Inhibitors of human tyrosyl-DNA phosphodiesterase 1 (TDP1): qHTS in cells in presence of CPT; also: nearly all actives have a fitted effect of over 55% in size", "conditions": "chicken DT40 Tdp1-/-;hTDP1 cells + 20 nM CPT, ATP luminescence, 48 h; activity change, negative = growth inhibition: at 46.2 µM (top of the series)", "how_it_was_run": "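Chicken DT40 Tdp1-/- cells stably complemented with human TDP1 were seeded at 400 cells/well in medium containing 20 nM camptothecin, exposed to pin-transferred compounds, and grown at 37 °C for at least 48 hr. Viability was read as ATP luminescence.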", "values": [{"smiles": "Cc1cc2nc(-c3cccc(Br)c3)c(Cc3ccsc3)n2c(C)c1Br", "Potency": "inconclusive: 18.4 µM [inhibitor, partial curve]"}, {"smiles": "CC1(C)Cc2cccc(C(=O)Nc3ccc(Cl)cc3)c2O1", "Potency": "inconclusive: 23.1 µM [inhibitor, single point]"}, {"smiles": "O=C(Cn1c(=O)oc2cc(S(=O)(=O)NCc3ccccc3)ccc21)Nc1ccc(F)c(Cl)c1", "Potency": "inconclusive: 23.1 µM [inhibitor, single point]"}, {"smiles": "CC1(C)Cc2ccccc2-c2nnc(-c3ccc4ccccc4n3)n21", "Potency": "inactive"}, {"smiles": "COCc1c(C(=O)NCc2ccccc2CN2CCCC2)oc2ccccc12", "Potency": "inactive"}, {"smiles": "COCCSc1nnc(NC(=O)Cc2ccc(OC)cc2)s1", "activity change, negative = growth inhibition": "inconclusive: -30.9% [inhibitor]"}, {"smiles": "CC(C)(C)c1ccc(C(=O)NCC(=O)NNC(=O)c2ccccc2O)cc1", "Potency": "inconclusive: 23.1 µM [inhibitor, single point]"}, {"smiles": "COc1c(Cl)cc(C(=O)Nc2ccccc2-c2ccccc2)cc1Cl", "Potency": "inconclusive: 23.1 µM [inhibitor, single point]"}, {"smiles": "Oc1ccc2[nH]cnc2c1CN1CCCCC1", "Potency": "inactive"}, {"smiles": "COCCNC(=O)c1cnn2c(C(F)(F)F)cc(-c3ccc(C)cc3)nc12", "Potency": "inconclusive: 29.1 µM [inhibitor, single point]"}, {"smiles": "Cc1cccnc1C1=NOC(Cc2ccccc2)C(=O)N1Cc1ccc(F)cc1", "note": "(centres undefined)", "Potency": "inconclusive: 25.9 µM [inhibitor, single point]"}, {"smiles": "CC1CCCCN1S(=O)(=O)c1ccc(S(=O)(=O)N2CCCC2)cc1", "note": "(centres undefined)", "Potency": "inconclusive: 29.1 µM [inhibitor, single point]"}, {"smiles": "CCSc1cnn(-c2ccccc2)c(=O)c1SCC", "Potency": "inactive"}, {"smiles": "CC1(C(=O)NC2CCN(Cc3ccccc3)CC2)CCN1Cc1ccc(OC(F)(F)F)cc1", "note": "(centres undefined)", "Potency": "inconclusive: 29.1 µM [inhibitor, single point]"}, {"smiles": "C/C(=N\\N(c1ccccc1)c1ccccc1)c1ccc(O)cc1", "Potency": "inactive"}, {"smiles": "Cc1ccc(S(=O)(=O)NCc2ccc3c(c2)OCO3)cc1C", "Potency": "inactive"}, {"smiles": "COc1ccccc1CNc1nc(Nc2ccc(C)cc2C)c2sccc2n1", "Potency": "active: 14.6 µM"}, {"smiles": "CC(C)c1ccc(NC(=O)c2ccc(NC3=NC4CS(=O)(=O)CC4S3)cc2)cc1", "note": "(centres undefined)", "Potency": "inactive"}, {"smiles": "CC(CC(=O)Nc1cccc(Cl)c1)c1ccccc1", "note": "(centres undefined)", "Potency": "inconclusive: 25.9 µM [inhibitor, single point]"}, {"smiles": "O=C(CSc1c(Cl)cccc1Cl)N1CCC(c2nc3ccccc3s2)CC1", "Potency": "inconclusive: 23.1 µM [inhibitor, single point]"}, {"smiles": "Cc1csc(SCC(=O)Nc2cc(C(N)=O)cc(C(N)=O)c2)n1", "Potency": "inactive"}, {"smiles": "CC(C)CCN1C(Nc2ccccc2)=NC[C@@H]1CC(C)C", "Potency": "active: 14.6 µM"}, {"smiles": "Cc1cc(Cl)ccc1N=C1N=C(N)c2ccccc21", "Potency": "inconclusive: 29.1 µM [inhibitor, single point]"}, {"smiles": "CCOC(=O)c1[nH]cnc1C(=O)Nc1cccc(N)n1", "Potency": "inconclusive: 29.1 µM [inhibitor, single point]"}, {"smiles": "Cc1cc(C)c(NC(=O)CCn2c(=O)c3cccn3c3cccnc32)c(C)c1", "Potency": "inconclusive: 25.9 µM [inhibitor, single point]"}, {"smiles": "Cc1cc(-c2ccc(C(C)C)c(S(=O)(=O)N3CCN(c4ccccc4)CC3)c2)on1", "Potency": "active: 2.59 µM"}, {"smiles": "COc1ccc(-n2c(C)cc(/C=C3\\SC(=S)N(Cc4ccco4)C3=O)c2C)cc1", "Potency": "inconclusive: 29.1 µM [inhibitor, single point]"}, {"smiles": "O=C(Nc1ccc(Br)cc1)c1cccc(-n2cnnn2)c1", "Potency": "inconclusive: 29.1 µM [inhibitor, single point]"}, {"smiles": "CC(SCC(=O)Nc1ccccc1Br)c1nc2ccccc2c(=O)[nH]1", "note": "(centres undefined)", "activity change, negative = growth inhibition": "inconclusive: -11.6% [inhibitor]"}, {"smiles": "CCC(=O)Nc1nnc(SCC(=O)NCc2ccc3c(c2)OCO3)s1", "Potency": "inactive"}, {"smiles": "Clc1cccc(CNc2cc(-c3ccccc3)nc3nncn23)c1", "Potency": "active: 14.6 µM"}, {"smiles": "O=C(CCN1CCN(c2ccccc2F)CC1)Nc1cccc(F)c1", "Potency": "inconclusive: 4.11 µM [inhibitor, partial curve]"}, {"smiles": "CN1C(=O)[C@H]2[C@@H](c3ccc(C(F)(F)F)cc3)N[C@]3(CCCN(Cc4ccco4)C3=O)[C@H]2C1=O", "Potency": "inconclusive: 29.1 µM [inhibitor, single point]"}, {"smiles": "Cc1ccc(S(=O)(=O)N(C)c2ccc(OC(=O)CN3C(=O)NC4(CCCC4)C3=O)cc2)cc1C", "Potency": "inactive"}, {"smiles": "O=C([C@@H]1CC=C[C@@H]2CCN(C3CCCCC3)C(=O)[C@@H]21)N1CCN(c2ccccc2)CC1", "Potency": "inactive and inconclusive: 35.5 µM [inhibitor, single point]"}, {"smiles": "CN(C)C=C1C(=O)c2ccccc2C1=O", "Potency": "inconclusive: 29.1 µM [inhibitor, single point]"}, {"smiles": "COc1ccc(S(=O)(=O)N(C)C[C@H]2Oc3ccc(NC(=O)Cc4cn(C)c5ccccc45)cc3C(=O)N([C@@H](C)CO)C[C@@H]2C)cc1", "Potency": "inconclusive: 29.1 µM [inhibitor, single point]"}, {"smiles": "O=C(CNCc1ccccn1)Nc1ccc([N+](=O)[O-])cc1C(=O)Nc1ccccc1F", "activity change, negative = growth inhibition": "inconclusive: -30.7% [inhibitor]"}, {"smiles": "Cc1ccccc1Cn1c(Cc2ccccc2)nc2ccccc21", "Potency": "inconclusive: 13 µM [inhibitor, partial curve]"}, {"smiles": "Cc1nnc(N(C(=O)c2cnccn2)c2ccccc2)s1", "Potency": "inconclusive: 20.6 µM [inhibitor, single point]"}, {"smiles": "Cc1ccc(C)c(OCc2cc(C(=O)N3CCOCC3)no2)c1", "Potency": "inactive"}, {"smiles": "Cc1ccc(-c2cc(-c3cccc(F)c3)n[nH]2)c(O)c1", "Potency": "inactive"}, {"smiles": "CC1(C)Cc2cccc(C(=O)Nc3ccc(F)cc3F)c2O1", "Potency": "inconclusive: 29.1 µM [inhibitor, single point]"}, {"smiles": "COc1ccc2[nH]cc(CCNc3cc(-c4ccccc4C(F)(F)F)ncn3)c2c1", "Potency": "inconclusive: 13 µM [inhibitor, partial curve, poor fit]"}, {"smiles": "COc1ccc(/C=C2\\SC(=O)N(CC(=O)NC3C=CS(=O)(=O)C3)C2=O)cc1", "note": "(centres undefined)", "Potency": "inconclusive: 2.59 µM [inhibitor, partial curve, poor fit]"}, {"smiles": "O=[N+]([O-])c1cccc(S(=O)(=O)c2ccc(NCCOCCO)c([N+](=O)[O-])c2)c1", "Potency": "inactive"}, {"smiles": "Fc1ccc(-c2csc3ncnc(N4CCN(c5ccccc5)CC4)c23)cc1", "Potency": "inconclusive: 29.1 µM [inhibitor, partial curve, poor fit]"}, {"smiles": "CCOC(=O)c1c(NC(=S)NC(=O)c2cnn(CC)c2)sc2c1CCC(C)C2", "note": "(centres undefined)", "Potency": "inconclusive: 16.4 µM [inhibitor, single point]"}, {"smiles": "Cc1ccccc1-c1cccc([C@@H]2C[C@H]3[C@H](CON3C)CN2C)c1", "Potency": "inactive"}, {"smiles": "O=C1OC(CC(=O)N(Cc2nnc(-c3ccccc3Cl)o2)C2CC2)c2ccccc21", "note": "(centres undefined)", "Potency": "inconclusive: 25.9 µM [inhibitor, single point]"}, {"smiles": "CC1=C([N+](=O)[O-])C(c2ccc(Cl)cc2)NC(=O)N1C", "note": "(centres undefined)", "Potency": "active: 6.51 µM"}, {"smiles": "CCC(C(=O)Nc1nc(C)c(C)s1)c1ccccc1", "note": "(centres undefined)", "Potency": "inconclusive: 16.4 µM [inhibitor, partial curve]"}, {"smiles": "COc1ccc(CN2C(=O)c3ccccc3C2c2nnnn2-c2ccc3c(c2)OCCO3)cc1", "note": "(centres undefined)", "Potency": "inconclusive: 29.1 µM [inhibitor, single point]"}, {"smiles": "COc1ccc(Cl)cc1C(=O)Nc1ccc(Br)c(C)n1", "Potency": "inconclusive: 18.4 µM [inhibitor, single point]"}, {"smiles": "O=C(NCCCN1CCCC1=O)c1cccc(NS(=O)(=O)c2ccc(Br)cc2)c1", "Potency": "inconclusive: 20.6 µM [inhibitor, single point]"}, {"smiles": "O=C(c1ccc(NS(=O)(=O)c2cccc(C(F)(F)F)c2)cc1)N1CCCC1", "Potency": "inactive"}, {"smiles": "CCCC(c1nnnn1Cc1ccco1)N1CCC(C(N)=O)CC1", "note": "(centres undefined)", "Potency": "inactive"}, {"smiles": "COc1ccc(C(C(=O)NC2CCCCC2)N(C(=O)c2ccco2)c2ccccc2OC)cc1", "note": "(centres undefined)", "Potency": "inconclusive: 14.6 µM [inhibitor, partial curve]"}, {"smiles": "CC(Nc1ccc(Br)cc1)C(=O)Nc1cccc(S(=O)(=O)N2CCOCC2)c1", "note": "(centres undefined)", "Potency": "inconclusive: 18.4 µM [inhibitor, single point]"}, {"smiles": "N#Cc1cccc(-c2nc(N3CCNCC3)c3ccccc3n2)c1", "Potency": "inconclusive: 29.1 µM [inhibitor, single point]"}, {"smiles": "Cc1noc(C)c1COC(=O)/C=C/c1ccc(Cl)cc1", "Potency": "inconclusive: 18.4 µM [inhibitor, single point]"}, {"smiles": "Clc1ccccc1-c1nc(Nc2ccncc2)c2ccccc2n1", "Potency": "inconclusive: 13 µM [inhibitor, partial curve]"}, {"smiles": "COC(=O)[C@H](Cc1ccccc1)NC(=O)NCCc1ccc(OC)cc1", "Potency": "inactive"}, {"smiles": "CCN=C1S/C(=C\\c2cc(OCC)c(O)cc2Br)C(=O)N1CC", "Potency": "active: 20.6 µM"}, {"smiles": "CN(C)CCNC(=O)c1[nH]nc2c1CCc1ccccc1-2", "Potency": "inactive"}, {"smiles": "CC(C)C[C@H](NC(=O)c1[nH]cnc1C(=O)N[C@@H](Cc1ccccc1)C(=O)OC(C)(C)C)C(=O)OCc1ccccc1", "Potency": "inconclusive: 29.1 µM [inhibitor, single point]"}, {"smiles": "N#CC1=C(N)N(c2cccc(Cl)c2)C2=C(C(=O)CCC2)C1c1cc(CN2CCOCC2)cs1", "note": "(centres undefined)", "Potency": "inconclusive: 29.1 µM [inhibitor, single point]"}, {"smiles": "CC(C(=O)Nc1ccc(C#N)cc1)N(C)CC(=O)Nc1ccccc1Br", "note": "(centres undefined)", "Potency": "inconclusive: 25.9 µM [inhibitor, single point]"}, {"smiles": "Cn1c2ccccc2c(=O)c2c(=O)n(-c3ccc(F)cc3)c(C3CCCCC3)nc21", "Potency": "inconclusive: 25.9 µM [inhibitor, single point]"}]}]}
